The list shows a part of the results.
Test system: PfAP2-HC AP2 domain (GST-tagged)
Assay: gcPBM binding intensity (ln(normalized median fluorescence intensity)); higher = stronger DNA binding
Summary of the method: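 Alexa488 anti-GST antibody, scanned at 488 nm, detected GST-tagged P. falciparum DNA-binding domains that had been expressed in E. coli and incubated for 1 h on an Agilent 4 × 180k array. The array carried primer-extended double-stranded 36-bp intergenic genomic probes and negative controls. Binding intensity is the highest Masliner-normalised natural-log median intensity across replicate spots of either orientation of each probe.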

Row | Sequence | gcPBM binding intensity (ln)
1 | TGCTGTATATTTTTCTGTACACATTTATATATTCCA [XGTACX_site6244] | 9.99
2 | AAGAATAAGAAGAAGGATCCCCTTCAAAAAAAAAAA [TGCATGCA_negctrl_site525] | 9.37
3 | AAAAAAAAAACATACACACATACATACATATATATT [CACACA_site949] | 10.2
4 | ATGAAGAATTTATATTGTACCCATTTTTATGTAAAT [XGTACX_site2528] | 9.61
5 | CGAAAAAGTGATATAGTGCAAAATTTTCATTTCTCT | 9.71
6 | AATATTTTTGTCGTTAGTACATAAAAAATAATAATA [XGTACX_site3074] | 9.56
7 | ATAATTTTATCATATATATATATATATAAATACTTA [CACACA_negctrl_site743] | 9.56
8 | ATGCTTTTATGCACACGTACAAAAATATTATATAAT [XGTACX_site5589] | 9.68
9 | AATAATAAAGTGAACACACACATATAATATATATAT [CACACA_site4143] | 10.2
10 | ATAATTAAAATGCTCACACACATAAAAAAAAATTAA [CACACA_site2149] | 9.94
11 | ATCCCCATAAAAAATACACACAAATATTTATACATA [CACACA_site1001] | 10
12 | ATAGAATCTGGTAGCTGTACGAGTCGTAGAGTGTAG [XGTACX_site2016] | 9.74
13 | ATATATTAAAAGGATTAGGAAAAAATATGATTTATC [TGCATGCA_negctrl_site405] | 9.52
14 | AAGTAAAAAAAAAAAAGTACATGTTTATATAAATAT [XGTACX_site4741] | 9.63
15 | ATACATATATATAATACACACATAAATGTAACATTT [CACACA_site3518] | 9.96
16 | ATAAATTAACATTAAAGTACATTTTAATAAATATTA [XGTACX_site3647] | 9.35
17 | GATCAAAATTATAGAAGTACTTTATATAAATAAAAT [XGTACX_site8161] | 9.6
18 | TATATATATAAGATTGTGCACATTAAAATGATAGAA [GTGCAC_site9621] | 10.1
19 | TCATAAATACATTTTGCATGTAAAATATAGAATACA [TGCATGCA_site755] | 9.65
20 | TCTATAAAATATAAAAGTACGTATCAATAATTAAAA [XGTACX_site8469] | 9.65
21 | ATTACGATAGAGAAATGTACATATATATATGTAAGT [XGTACX_site1200] | 9.84
22 | TATTTTATAAATTAATGTACATAAATTATATCTACT [XGTACX_site3625] | 9.54
23 | TGATAAGAAAAAGACTTTTCCTTCTTACTTTCTATG [CACACA_negctrl_site782] | 9.48

Row | Sequence | gcPBM binding intensity (ln)
24 | AATAATGTTTTTATATCACACACAAATATTAAATGA [CACACA_site8074] | 9.93
25 | CAAAATAAATAATTTGGTACACATAAAAAAAAAAAA [XGTACX_site8380] | 9.77
26 | CCATAAAACTATAATACACACATATAGATTAACATA [CACACA_site7849] | 10.1
27 | AAAATTGGTGAAAATGAAAATATGATTATATGTATA [XGTACX_negctrl_site505] | 9.67
28 | GTATATAGTATGTAGAGTACTAATTTCCATATGTTC [XGTACX_site7816] | 9.68
29 | ATTTATATATAGGTGTGTCCACAAATAGTATGTAAA [XGTACX_site2916] | 9.88
30 | AATTAATATATAAATAATAAAAAAAAATATATAAAC [XGTACX_negctrl_site280] | 9.62
31 | GAACGAAATAAGTGTGTGCACATGTAACCACAAATC [GTGCAC_site9829] | 10.4
32 | CAATATTTTCATAGATGTACTTTGGACTTATTATAT [XGTACX_site4849] | 9.6
33 | TAAATAAAAGATACGAGTACGTATGATGTTAACCTC [XGTACX_site8840] | 9.99
34 | CTTATTTAATGTATCACACACGAGAATAAAAAATAA [CACACA_site3020] | 9.79
35 | TATAAGTTGATATATACACACATATATAAATATGTA [CACACA_site7526] | 9.77
36 | TATTTATAAAAATATACACACATACAAATATGCATA [CACACA_site4555] | 9.82
37 | ATGGTTTTCAGAAAAACATGCATACAATAATAAAAA [TGCATGCA_site815] | 9.59
38 | TTTAAAATAACCAAAAACAAAAAGAAACACAAATGT [GTGCAC_negctrl_site705] | 9.78
39 | GATCAAATAGAAAATACATGCAATGTGTGAAATAAC [TGCATGCA_site835] | 9.86
40 | TTTCAAATGGAATGTGTGCACATAAATGTAAATAAA | 10.1
41 | AAAAAAAAAATTTACTGTACACATTTGGGATACTCA [XGTACX_site5191] | 9.58
42 | ATATGTAGTTTTTATTGTACGTGTAGAAGAAATAAT [XGTACX_site6608] | 9.86
43 | TTCATTAAAATTATTACACACAGTTCTTCAACCAAA [CACACA_site3504] | 9.72
44 | AATGATTTTCAATCGAAATGAAACTTAGAAGATATA [CACACA_negctrl_site1475] | 9.5
45 | TTTTAAACAGGACACACACACATATAGATTTATATA [CACACA_site6560] | 10.3
46 | AAACTTTTTTTAAAAACACACATATAGATTTATATA [CACACA_site7842] | 9.63

Row | Sequence | gcPBM binding intensity (ln)
47 | TTTTGTTATTTTTGTATGCACTACATATTATTATAT | 9.99
48 | TATTTTTAAACAAAACTGTATTTATTTTTTAAAATT [CACACA_negctrl_site1449] | 9.44
49 | TAGTTTTTTATATATTGTACAAATGATATATTATAT [XGTACX_site1002] | 9.56
50 | GAAATTAAAAAATTTATGCACACTTTAAAAAAAAAA [CACACA_site3769] | 9.58
51 | ATATATATATATAATTGTACATTTTTATGTTTTATA [XGTACX_site4560] | 9.92
52 | ATGAAAAAAAATAAAAAATATATATATATATATATA [CACACA_negctrl_site236] | 9.48
53 | TATATTTTAATTTGAAGTACTAATATTTATTTATAT [XGTACX_site7458] | 9.47
54 | TATAACCATATATACACACACATATAAATATAAATA [CACACA_site7089] | 10.1
55 | AAGGTGGAAACAATTACACACACACTAAAAAAAAAA [CACACA_site7493] | 10.8
56 | ATATATATATATTTCGTGCACTGATAATATTATTTT | 9.75
57 | TTGTCTACAAAAATGTGCTTCTAATCATACGACTTG [CACACA_negctrl_site46] | 9.47
58 | TACATATATTATTGCACACATATAAAATACCCCCAA [CACACA_site3895] | 10.1
59 | CAGTTTACTAATATTGCACACGAATATGAAAAAGAG [CACACA_site8941] | 9.84
60 | TTTTTTTTTCAAGAGGTGCGTGTATTTTAACAAAAA | 9.46
61 | AAAAAAAATTATGAAGTGCATTAGTGAATTTGATTG | 9.61
62 | TTATCATTTGCCATTGTGCACTTATATGCTCACATT | 9.9
63 | TTTTTCACACTTCAAAAGTGTCAACCTTCTATTCTC [TGCATGCA_negctrl_site489] | 9.81
64 | CACAAATATACAAATACACACAAATATACAAATACA [CACACA_site2385] | 10.1
65 | GTAAAATTTACATAGAGTACTTATATTTTTTTCTGC [XGTACX_site3414] | 9.45
66 | ATATTGTAAGTAAACACACACACATATATCTGTATA [CACACA_site4541] | 10.3
67 | TAAAGTGTAAAATTCACACACATATATATATATATA [CACACA_site4883] | 9.84
68 | ATTTTTTTTTTCTTTTTTTTTTGTTTTTCTCCTTTT [CACACA_negctrl_site1182] | 9.49
69 | ATTTTTTTTATTATTACACACATATAATAAAAAAAT [CACACA_site1802] | 9.44

Row | Sequence | gcPBM binding intensity (ln)
70 | GTATAATTTATTGAACGTACACATATATATATGTAT [XGTACX_site1395] | 9.74
71 | AATAAAATGCAATACATTTTGTTATATAATGTTGTT [CACACA_negctrl_site1525] | 9.7
72 | CACAATGTAGTGTATAAATACAATAAAAGGTTGTAT [CACACA_negctrl_site700] | 9.87
73 | AAATGTATAGGAATAATAATAAAAAAAAAAAAAAAT [CACACA_negctrl_site1793] | 9.65
74 | TGGAGGTCAGTTCACAGTACCCAGTAACTCTACGGA [XGTACX_site2549] | 9.3
75 | AAAAAAAATAAAATAATAAAAATTATGAATATATAT [CACACA_negctrl_site280] | 9.63
76 | ATCATTCCACTTTTCACACATATCTCTATTTCTATC [CACACA_site4723] | 10.1
77 | ATAGGTAATAATAATACACACGGTGAAATATAGATG [CACACA_site9336] | 10.3
78 | TATTTCTTATTACATACACACATATACATAGATGAC [CACACA_site5729] | 9.86
79 | TCTTGTCTACCTTGTATTTAATATTTACATATATAA [TGCATGCA_negctrl_site320] | 9.78
80 | TATTTGTAAAAATTGTGTACTTAGAAAATTCCAAAA [XGTACX_site6007] | 9.22
81 | TATATGTTTTTATGTACACACTTTTAACCTAAGAAA [CACACA_site4769] | 9.61
82 | TTCTTGTATATATTTTGTACATATATACCATTTTAG [XGTACX_site2409] | 9.88
83 | TTAAATGTAATATAATGTACGGATATTTACCATAAA [XGTACX_site1472] | 9.42
84 | TACAAATATGGACACACACACATATATATATATATA [CACACA_site4488] | 11.3
85 | TTATTTTTTTATTCATGTACACAAGAACATTTCATT [XGTACX_site5744] | 9.62
86 | TAAATATATTGGAGAGGTACACTTTTGGCATTGAAA [XGTACX_site8447] | 9.49
87 | GTATATATAATGTGCCGTACATTTATATATTCAATA [XGTACX_site1051] | 9.54
88 | GTATAATAGAAACACACACACACACCCAAAAAAAAA [CACACA_site2010] | 10.7
89 | AAGTATGTATCACAAAGTACTTAAGCATATATTTAA [XGTACX_site4121] | 9.71

Reference: the supplement of paper PMC11417369
